# Source: the RNAGym collection of RNA variant scans (doi:10.7554/elife.90254)
# The source gives no read counts; variants with many changes may rest on few reads.
# B1: OR4K15 (parent)
# chain: GUUAACGGUCAUAGGCCAUGGAAACUAGGAGCACCAUUUCGCUGCCAGUGAAGAAAUGAACAAAGAAAAUCUGGGCCAGGCAGGCAUCAAAAGAAAUAGUCUUGCGCUCAACCAGAAAGUCUGUAAUCAUUUUAAGGGUA
# Variants of: B1
# Test: self-cleavage, relative activity (ratio to wild type); higher = more cleavage; in vitro, sequencing; the parent is a self-cleaving ribozyme
row,Variant,self-cleavage
1,A27G U38C A60G A91G,0.55
2,U39A A86G A98U,1.17
3,U9C A11U A13G A59G A86G U127C,1.14
4,U19C U122A A135G,0.08
5,G31A A36U A56G U72C,0.13
6,A11G A33G A91G,0.62
7,U19C A22G U49A A96G C101U U130C U139A,0.13
8,C77A A92G A110G,0.07
9,A23G A47U A66U U108C U139C,0.02
10,U38C U49G A67G U102C U124C,1.37
11,A22G A56G U72G,0.27
12,U87C A90G U103C U124C U127C,0.04
13,A60G A98G U100C A111U,0.02
14,A51G A55U A59G,1.4
15,A4G A52G A63G U87A U132A,1.99
16,A24G U43C U87C U100C,2.24
17,A23C A56U A59G U108C A118G,0.03
18,A36U U70C A125G U127C,0
19,A23G C34U A89G A116G U127C,0.05
20,U37C U39C A47G U70C,1.28
21,U49C A91G U108C A126G,0.02
22,A23G C45U A69G A94U A95G C101U U108C,0.01
23,A23G U97C A111U A125G U132C,0
24,A22G A60G U72A A134G,0.37

row,Variant,self-cleavage
1,A22G A96G A118U A129G,0.35
2,U2C A62G A68C,0.83
3,A27G A62G A135G,0.85
4,A68G U102C U103C,0.25
5,A55G A60U C85U A125G,0.56
6,A92G A95G A134G,2.77
7,A5G A11G U87A A90G U132A,0.91
8,U19G U37G U70C G83U A94U U131C,0.19
9,U26C A54U U72A,0.29
10,C76A U124A U130C,0.04
11,A36G A55G U57C,1
12,A24G U38A U87C,1.49
13,A36U U37C U120C G137A,1.74
14,C40U U120C C121U,2.73
15,A30U G31A A54U,1.1
16,U87C A96G U103A,0.83
17,U12A A64G A135G,1.69
18,A30G A55G A117G,1.38
19,A23G U57C G83A,1.08
20,U3A G21A U72C A78U A126G,0.19
21,A4G A5G C40U A47U A67G U87C,0.52
22,U2A U12A A90U A91G A118U,0.77
23,A5G A47G A59G A96G,0.61
24,A51C A78G A116G,0.06

row,Variant,self-cleavage
1,U2C G50A A82G C109U,0.32
2,A96G U103C U122C,0.39
3,A69G C105U A110U A114C,0.01
4,A23G A47U A89G U139C,0.77
5,C45A A60G C128U,0.17
6,A36G A52G A129G U132C,1.39
7,A33C U49C A126G,0.92
8,A22G A67G U87G U131C,0.27
9,A59G A114G A118G U124C,0.01
10,U9C A30G U49A A91G,1.08
11,A18U A30U U38C A78G U122C A129G U132C,0.09
12,A33U A60U U70C U100C U108A,0.02
13,A4G A92G A118G,0.89
14,U3C U39C A91G A94U,0.83
15,A22G A24G U37C A116G,0.3
16,U49G U103C A134G G138U,0.64
17,A5C A23G C88A U122C,1.8
18,A30U U57G A86G U132A,0.97
19,A22G A23G U87C,0.28
20,A51G A98C U131C,1.07
21,U26G A30G U103C,0.46
22,A22G A78U A96G,0.13
23,A23G A62C A68G,1.75
24,A11G U12A A62G A125G,0.57

row,Variant,self-cleavage
1,C77U A82G U100C,1.64
2,U72C A86G U102C A110G A116G U132C,0
3,U37C A66G A92G U124C U139C,0.32
4,A5C U39G A66G A126G C128U A129G,0.33
5,C32U A59U A86G,1.9
6,U9C U12A A59G,2.21
7,U38C A47G A54G A67G,0.94
8,A13U U72C A129G,0.19
9,A11G A55G A69G U127C,0.32
10,G41A A63G U87C,1.51
11,A51G U100C A110U,1.73
12,U37C A52G U139C,1.85
13,U9A A91G A95G A111C U124C,0.03
14,A22G U39C A60G U133C,1.12
15,A23G U43A C61U A111U,0.17
16,A23G A64G A91G A114G,0.68
17,A11G U26A A78U U103C,0.04
18,A33G A78C G137U,0.25
19,A13U U37C A78G,0.21
20,A18G A92G U122C,0.76
21,A60G U108C G115U,0
22,U2C C42U A68G,1.18
23,A56G A91U A94G A98G,1.3
24,A5G A33G A52G A62U A67G C85U A95G,0.97

row,Variant,self-cleavage
1,A11G A89G U102C,1.56
2,A27G A63U U100C,0.76
3,A68G A90C A116G A118U U132C,0.03
4,G15A A89U A95G,2.28
5,A27G A60G C88U,1.44
6,A36U A86U A118C,1.11
7,U37C U100C A118G U122C,1.04
8,A54U A94G U108C U127C,0.01
9,U9C A13G A22G U49C A51U A90C U108C,0.06
10,A13U A54U A91G U103C,0.08
11,A23G U39C A52G,2.67
12,G50A U87C A134G,1.67
13,A11G A63G A67G A69G A140G,0.58
14,A33G U43A U87C,0.29
15,U38C A59G U97C,1.19
16,A59U A60G A64G A118G U122C,1.91
17,A33G A117G G137A,1.38
18,U26A A30G A55G A116G U122C,0.09
19,U19C C77A A78G A116G U130C,0.14
20,A22G A23G A86G A89G A95G U108C A135C,0.01
21,A11U A116G A118U,0.08
22,A24G A36G A60G A86G,1.51
23,C17A A33G U87A,0.62
24,A11G G15A A22G A24G,1.15

row,Variant,self-cleavage
1,U3C U26C A60G U108A,0.08
2,U9C U97A A114G,0.33
3,A60U A117G U122C,1.24
4,A59G A82G A140C,0.76
5,U49C A67U U122A,0.96
6,A59G A68G A89U A117G U131C,1.06
7,U37C A47G A64G A96G A116U,0.14
8,U39C A68G A94G U130C,1.61
9,U2A U108C U122C,0.02
10,A55G G99U A126G,0.38
11,U2A A60G A96G U131C,1.48
12,A13G A52G U102C A110G,0.18
13,A23G U37C U43C A54G A64G A82U,0.19
14,A18C A55G A92G A126U A134G,0.67
15,U72C U108A C128A,0.02
16,C25U A56G U72A U102C A118G,0.14
17,U43A A52G A62G,2.1
18,A4G A110G A140C,0.26
19,A52U A96G U120C,1.46
20,A11U C42A A59G A129G,0.6
21,U2A G29A A118G,0.97
22,U38C A69G A78U G99A,0.06
23,C6A A23G A27C,0.35
24,U38C U108C A135G G137A U139C,0.01

row,Variant,self-cleavage
1,A27G A67G A95G A111U,0.13
2,U38C A52G A69U A82G A89G U120C,0.32
3,A5G A23G A114U,0.33
4,U38C A69G U131C,1.2
5,A69G A89C U124C,0.65
6,U12C A52G A59G A67G G119A G137C,1.05
7,A60G A68G A114U,0.02
8,U39A A59U A96G,1.96
9,A36U A89G A90G U103A,0.43
10,A24G A52G A68G A86G U108C G119A,0.02
11,A66G A89G U130C,0.9
12,A18G U49A A54G A60G A67G U70C C85U U103A U139G,0.06
13,A52G G80U A95G,0.08
14,G28A U102A U133C,0.96
15,A33G U103A U127A,0.92
16,A22U A51G U108G,0.02
17,A23G G48U A82U A91G,0.05
18,A23G A62G A69G A86G,1.15
19,G65U A68G A118G,1.58
20,A5G U19A C25G A94G A110G,0.15
21,U72C G80U A140G,0.18
22,A5G U57C A64G A111U,0.1
23,A60G U87C A114G U130C,0.09
